Over roughly 18,000 sequences, “TetR repression strength (sort-seq, GFP reporter)” has its median near 0.23; the highest 2% begin near 0.68. Some of the results follow.

For this test, the target named is TetR (class B, Tn10) (UniProt P04483). As to the kind of experiment: TetR repression strength (sort-seq, GFP reporter) (relative to tetO2 = 1); higher = stronger repression. The note with it: E. coli. The gist of the method: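 Three independent transformations of E. coli SIG10-MAX were made with a low-copy plasmid library randomizing eight operator positions between a constitutive promoter and sfGFP, with constitutive TetR. Following 5 h at 37 °C in LB plus 50 µg/mL chloramphenicol, 10^6 cells went through FACS into 13 fluorescence bins, and each bin was sequenced by Illumina. Repression strength was defined as the top bin index plus one minus the read-weighted mean bin, divided by the unaltered operator's value. Averages included only members reaching ≥30 reads in all replicates with a CV ≤0.5.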
Chain of UniProt P04483 (P04483 whole entry): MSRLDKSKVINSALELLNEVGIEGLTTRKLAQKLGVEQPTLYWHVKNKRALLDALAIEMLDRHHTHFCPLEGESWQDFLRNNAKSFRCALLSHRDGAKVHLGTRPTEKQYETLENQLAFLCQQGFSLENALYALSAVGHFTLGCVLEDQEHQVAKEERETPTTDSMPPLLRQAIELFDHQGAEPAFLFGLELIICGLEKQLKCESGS
TCCCAGAGAGTAACCGAGA registered a TetR repression strength of 0.619.

TCCCCTAGAGTATGTGAGA showed a TetR repression strength of 0.301.

Turning to TCCCGAGAAGTTTAGGAGA, the TetR repression strength came to 0.0283.

In turn, TCCCTGGTAGTAAGAGAGA returned a TetR repression strength of 0.146.

TCCCGGGAAGTTGTCGAGA: the TetR repression strength was 0.18.

Take TCCCCTCTAGTGGTCGAGA: the TetR repression strength turned out to be 0.244.

TCCCAACCAGTCCCGGAGA came in with a TetR repression strength of 0.12.

As to TCCCCCAAAGTGGTGGAGA, the TetR repression strength is 0.321.

The sequence TCCCGACGAGTGGCGGAGA gave a TetR repression strength of 0.407.

In the case of TCCCAAATAGTACAAGAGA, the TetR repression strength is 0.42.

TCCCTAAAAGTTCTAGAGA displayed a TetR repression strength of 0.185.

On to TCCCGGTAAGTGTGTGAGA, for which the TetR repression strength is 0.168.

TCCCGGTGAGTCTACGAGA showed a TetR repression strength of 0.0533.

In turn, TCCCGAGGAGTTGATGAGA yielded a TetR repression strength of 0.125.

In the case of TCCCTTCTAGTGAGGGAGA, the TetR repression strength was 0.426.

TCCCAGTTAGTCCAAGAGA returned a TetR repression strength of 0.366.

The sequence TCCCCCGAAGTCACTGAGA had a TetR repression strength of 0.203.

On to TCCCGGCAAGTCGGTGAGA, for which the TetR repression strength worked out at 0.0647.

TCCCGTATAGTGCCCGAGA came in with a TetR repression strength of 0.197.

The sequence TCCCACATAGTTGTAGAGA returned a TetR repression strength of 0.378.

For TCCCGGAAAGTGGGTGAGA, the TetR repression strength came out at 0.248.

For TCCCGCGTAGTGCCCGAGA, the TetR repression strength worked out at 0.0499.

Consider TCCCCGATAGTTAACGAGA, for which the TetR repression strength came to 0.221.

Consider TCCCGTTAAGTCAGGGAGA, for which the TetR repression strength came out at 0.208.

Regarding TCCCTTTCAGTCGGGGAGA, the TetR repression strength was 0.0806.

TCCCGGGGAGTTAAAGAGA returned a TetR repression strength of 0.518.

For TCCCATTCAGTCTTTGAGA, the TetR repression strength was found to be 0.228.

With TCCCAATTAGTTGGCGAGA, the TetR repression strength stood at 0.284.

On to TCCCTTTGAGTCGCAGAGA, for which the TetR repression strength came to 0.386.

The sequence TCCCGGGCAGTCTGGGAGA showed a TetR repression strength of 1.2.

TCCCGCACAGTCGAGGAGA had a TetR repression strength of 0.404.

As to TCCCGGCCAGTGTGGGAGA, the TetR repression strength was determined as 0.13.

For TCCCCTGGAGTCACCGAGA, the TetR repression strength stood at 0.476.

For TCCCCGTGAGTTGCGGAGA, the TetR repression strength came to 0.279.

Take TCCCACCCAGTGCTTGAGA: the TetR repression strength is 0.305.

Turning to TCCCACGTAGTGACAGAGA, the TetR repression strength was 0.181.

TCCCTCTTAGTATATGAGA came in with a TetR repression strength of 0.301.

The sequence TCCCGCTCAGTAGGTGAGA returned a TetR repression strength of 0.16.

Sequence TCCCGGTTAGTGCCCGAGA yielded a TetR repression strength of 0.64.

The sequence TCCCATCTAGTTCATGAGA had a TetR repression strength of 0.213.

The sequence TCCCGCACAGTCCTCGAGA returned a TetR repression strength of 0.528.

For the sequence TCCCATTTAGTATCGGAGA, the TetR repression strength is 0.125.

Consider TCCCGAAGAGTGTCAGAGA, for which the TetR repression strength is 0.345.

With TCCCGATAAGTCTCGGAGA, the TetR repression strength turned out to be 0.536.

Sequence TCCCCTTTAGTGTGGGAGA registered a TetR repression strength of 0.118.

Sequence TCCCCGGAAGTTCGAGAGA came in with a TetR repression strength of 0.0315.

Consider TCCCCTCGAGTAGGGGAGA, for which the TetR repression strength worked out at 0.151.

In turn, TCCCCATGAGTCTTGGAGA yielded a TetR repression strength of 0.172.

TCCCCGTTAGTTTTGGAGA registered a TetR repression strength of 0.104.

Turning to TCCCGCATAGTTATTGAGA, the TetR repression strength worked out at 0.197.

Consider TCCCTCTCAGTGATGGAGA, for which the TetR repression strength is 0.546.

With TCCCTATCAGTGATCGAGA, the TetR repression strength was 0.868.

With TCCCTGGTAGTTTGGGAGA, the TetR repression strength is 0.0756.

As to TCCCTCTCAGTTAGAGAGA, the TetR repression strength was found to be 0.726.

With TCCCCGTAAGTGCACGAGA, the TetR repression strength was 0.193.

For the sequence TCCCAGCAAGTAGCAGAGA, the TetR repression strength is 0.198.

TCCCTGCTAGTTACCGAGA showed a TetR repression strength of 0.361.

TCCCGAACAGTGCCTGAGA yielded a TetR repression strength of 0.28.

TCCCTAATAGTGAAGGAGA gave a TetR repression strength of 0.101.

With TCCCTACAAGTAGTGGAGA, the TetR repression strength turned out to be 0.303.

As for TCCCGAGTAGTTTGTGAGA, the TetR repression strength is 0.152.

In turn, TCCCCACTAGTCCAGGAGA yielded a TetR repression strength of 0.134.

Consider TCCCGCAGAGTGCAGGAGA, for which the TetR repression strength is 0.195.

TCCCTTTCAGTTAAGGAGA yielded a TetR repression strength of 0.196.

With TCCCAGAGAGTGGTAGAGA, the TetR repression strength is 0.292.

Turning to TCCCGTTCAGTGGTTGAGA, the TetR repression strength was determined as 0.416.

Take TCCCGTCGAGTTTGTGAGA: the TetR repression strength amounted to 0.772.

With TCCCTGGGAGTGCAAGAGA, the TetR repression strength came to 0.347.

As to TCCCGAATAGTTGGGGAGA, the TetR repression strength was 0.152.

TCCCCCGAAGTACCAGAGA showed a TetR repression strength of 0.207.

As to TCCCCCCTAGTTACAGAGA, the TetR repression strength was 0.409.

On to TCCCACCGAGTGGCAGAGA, for which the TetR repression strength turned out to be 0.498.

Sequence TCCCGAAAAGTTGGCGAGA came in with a TetR repression strength of 0.433.

Turning to TCCCAAATAGTCAGTGAGA, the TetR repression strength was determined as 0.38.

In turn, TCCCTGGGAGTGTGAGAGA yielded a TetR repression strength of 0.18.

Regarding TCCCCCGCAGTATTTGAGA, the TetR repression strength worked out at 0.298.

As to TCCCGTATAGTTAATGAGA, the TetR repression strength worked out at 0.0736.

TCCCTAGGAGTGGCTGAGA: the TetR repression strength came out at 0.676.

The sequence TCCCAGTGAGTGTAGGAGA registered a TetR repression strength of 0.318.

TCCCGTCCAGTCGCCGAGA yielded a TetR repression strength of 0.232.

TCCCACACAGTGGCAGAGA yielded a TetR repression strength of 0.173.

For the sequence TCCCTGATAGTAGAGGAGA, the TetR repression strength was found to be 0.384.

Turning to TCCCGTCGAGTGGGGGAGA, the TetR repression strength turned out to be 0.183.

TCCCAGTCAGTCCATGAGA registered a TetR repression strength of 0.057.

On to TCCCACTCAGTCAAGGAGA, for which the TetR repression strength was determined as 0.439.

TCCCGTTTAGTTTAAGAGA: the TetR repression strength was 0.419.

TCCCTTGCAGTCCGGGAGA: the TetR repression strength came to 0.0195.

For the sequence TCCCGAGTAGTTTTTGAGA, the TetR repression strength came out at 0.159.

For the sequence TCCCTTAAAGTGGGGGAGA, the TetR repression strength stood at 0.245.

Take TCCCGTTCAGTATACGAGA: the TetR repression strength was 0.165.

TCCCAAGCAGTTAACGAGA yielded a TetR repression strength of 0.284.

Turning to TCCCTTCGAGTTACAGAGA, the TetR repression strength is 0.43.

Turning to TCCCTGGAAGTAGGGGAGA, the TetR repression strength was 0.303.

Turning to TCCCGGTCAGTGTCAGAGA, the TetR repression strength was 0.332.

Consider TCCCAGGTAGTGATAGAGA, for which the TetR repression strength is 0.622.

Sequence TCCCATTCAGTGCATGAGA showed a TetR repression strength of 0.501.

In the case of TCCCAGCAAGTAGACGAGA, the TetR repression strength was 0.0773.

TCCCATATAGTTTGTGAGA registered a TetR repression strength of 0.109.

Sequence TCCCCGCGAGTATGGGAGA registered a TetR repression strength of 0.239.

Consider TCCCGCCGAGTGTGCGAGA, for which the TetR repression strength amounted to 0.147.

Take TCCCACAAAGTGTGAGAGA: the TetR repression strength turned out to be 0.17.

Consider TCCCATCTAGTGGCTGAGA, for which the TetR repression strength amounted to 0.341.

For the origin of these results see a collection of fitness landscapes (doi:10.1038/s41467-024-54723-y).
